The source gives no read counts; variants with many changes may rest on few reads.
B1: OR4K15 (parent)
chain: GUUAACGGUCAUAGGCCAUGGAAACUAGGAGCACCAUUUCGCUGCCAGUGAAGAAAUGAACAAAGAAAAUCUGGGCCAGGCAGGCAUCAAAAGAAAUAGUCUUGCGCUCAACCAGAAAGUCUGUAAUCAUUUUAAGGGUA

Variants of: B1
Test: self-cleavage, relative activity (ratio to wild type); higher = more cleavage; in vitro, sequencing; the parent is a self-cleaving ribozyme

Row | Variant | self-cleavage
1 | UUUAACGGUCAUAGGCCAUGGAAACUAGGAGCACCAUUUCGCUGCCAGUGAAGAAAUGAACAAAGAAAAUCAGGGCCAGGCAGGCAUCAAAAGAAAUAGUCCUGCGCUCAACCAGAAAGUCUGUAAUCAUUCUAAGGGUA [G1U U72A U102C U132C] | 0.43
2 | AUUAACGGUCAUAGGCCAUGGAAACUAGGAGCACCAUUUCGCUGCCAGUGAAGAAAAGAACAAAGAAAAUCUGGGCCAGGCAGGCGUCAAAAGAAAUAGUCUUGCGCUCAACCAGAGAGUCUGUAAUCAUUUUAAGGGUA [G1A U57A A86G A117G] | 1.18
3 | AUUAACGGUCAUAGGCCAAGGAAGCUAGGGGCACCAUUUCGCUGCCAGUGAAGAAAUGAACAAAGAAAAUCUGGGCCAGGCAGGCAUCAAAAGAAAUAGUCUUGCGCUCAACCAGAAAGUCCGUAAUCAUUUUAAGGGUA [G1A U19A A24G A30G U122C] | 1.36
4 | CUUAACGGUCAUAGGCCAUGGAAGCUAGGAGCACCAUUUCGCUGCCAGUGAAGAAAUGAACAAAGAAAACCUGGGCCAGGCAGGCAUCAAAAGAAAUAGUCUUGCGCUCAACCAGAAAGUCUGUAAUCAUUUUAAGGGUA [G1C A24G U70C] | 0.99
5 | UUUAACGGUCAUAGGCCAUGGAAACUAGGAGCACCAUCCCGCGGCCAGUGAAGAAAUGAACAAAGAAAAUCUGGGCCAGGCAGGCAUCAAAAGAAAUAGUCUUGCGCUCAACCAGAAAGUCUGUAAUCAUUUUAAGGGUA [G1U U38C U39C U43G] | 1.78
6 | AUUAACGGUCAUAGGCCAUGGAAACUAGGAGCACCACUUCGCUGCCAGUGAAGAAAUGAACAAAGAAAAUCUGGGCCAGGCAGGCAUCAUAGGAAAUAGUCUUGCGCUCAACCAGAGAGUCUGUAAUCAUUUUAAGGGUA [G1A U37C A90U A92G A117G] | 1.6
7 | AUUAACGGUCAUAGGCCAUGGAAACUAGGAGCACCAUUUCGCUGCCAGUGAAGAAAUGAACAAAGAAAAUCUGGGCCAGGCAGGCAUCAAAAGAAAUAGUCUUGCGCUCAAUCAGAAAGUCUGUAAUCAUUUUAAGGGUG [G1A C112U A140G] | 0.04
8 | AUUAACGGUCAUAGGCCAUGGAAACUAGGAGCACCAUUUCGCUGCCGGUGAAGAAAUAGACAAAGAAAACCUGGGCCAGGCAGGCAUCAAAGGAAAUAGUCUUGCGCUCAACCAGAGAGUCUGUAAUCAUUUUAAGGGUA [G1A A47G G58A A59G U70C A92G A117G] | 1.58
9 | UUUAACGGUCGUAGGCUAUGGAAACUAGGAGCACCACUUCGCUGCCAGUGAAGAAAUGAACAAAGAAAAUCUGGGCCAGGCAGGCAUCAAAAGAAAUAGUCUUGCGCUCAACCAGACAGUCUGUAAUCAUUUUAAGGGUA [G1U A11G C17U U37C A117C] | 0.44
10 | AUUAACGGUCAUAGGCCAUGGAAACUAGGAGCACCGUUUCGCUGCCAGUGAAGAAAUGAACGAAGAAAAUCUGGGCCAGGCAGGCAUCAAAGGAAAUAGUCUUGCGCUCAACCAGAAAGUCUGUAAUCAUUUUAAGGGUA [G1A A36G A62G A92G] | 1.26
11 | AUUAACGGCCAUAGGCCAUGGAAACUAGGAGCACCAUUUCGCUGCCAGUGAAGAAAUGUACAAAGAAAAUCUGGGCCAGGCAGGCAUCAGAAGAAAUAGUCUUGCGCUCAACCAGAAAGUCUGUAAUCAUUUUAAGGGUA [G1A U9C A59U A90G] | 1.83
12 | GAUAGCGGUCAUAGGCCAUGGAAACUAGGAGCACCAUUUCGCUGCCAGUGAAGAAAUGAACAAAGAAAAUCUGGGCCAGGCAGGCACCAGAAGAAAUAGUAUUGCGCUCAACCAGAAAGUCUGUAAUCAUUUUAAGGGUA [U2A A5G U87C A90G C101A] | 0
13 | GAUAACGGUCAUAGGCCGUGGAAACUAGGAGCACCAUUUCGCUGCCAGUGAAGAAAUGAACAAAGAAAAUCUGGGCCAGGCAGGCACCAAAAGAAAUAGUCUUGCGCUCAACCAGAAAGUCUGUAAUCAUUUUAAGGGUA [U2A A18G U87C] | 1.4
14 | AUUAACGGUCAUAGGCCAUGGAAACUAGGAGCACCAUUUCGCUGCCAGUGAGGAAAUGAACAAAGAAAAUCUGGGCCAGGCAGGCAUCAGAAGAAAUAGUCUUGCGCUCAACCAGAAAGUCUGUAAUCAUUUUAAGGGUA [G1A A52G A90G] | 1.68
15 | GAUAACGGUCAUAGGCCAUGGGAACUAGGUGCACCAUUUCGCUGCCAGUGAAGAAAUGAACAAAGAAAAUCUGGGCCAGGCAGGCAUCAGAAGAAAUAGUCUUGCGCUCAACCAGAAAGUCUGUAAUCAUUUUAAGGGUA [U2A A22G A30U A90G] | 1.03
16 | GAUAGCGGUCAUAGGCCAUGGAAACUAGGAGCACCAUUUCGCUGCCAGUGAAGAAAUGAACAAAGAAAAUCUGGGCCAGGCAGGCAUCAAGAGAAAUAGCCUUGCGCUCAACCAGAAAGUCUGUAAUCAUUUUAAGGGUA [U2A A5G A91G U100C] | 2.37
17 | CUUAACGGUCAUAGGCCAUGGAAACUAGGAGCACCACUUCGCUGCCAGUGAAGAGAUGAACAAAGAAAAUCUGGGCCAGGCAGGCAUCAAAAGAAAUAGUCUUGCGCUCAACCAGAAAGUCUGUAAUCAUUUUAAGGGUA [G1C U37C A55G] | 0.52
18 | GAUAACGGUCGUAGGCCAUGGAAACUAGGAGCACCAUUUCGCUGCCAGUGAAGAAAUGAACAAAGAAAAUCUGGGCCAGGCAGGCAUCAAAAGAAAUAGUCUUGCGCUCAACCAGAAAGUCUGUGAUCAUUUUAAGGGUA [U2A A11G A125G] | 0.38
19 | AUUAACGGUCAUAGGCCAUGGAAACUAGGAGCACCAUUUCGCUGCCAGUGAAGAAAUGAACAAAGAAAAUCUGGGCCAGGCAGGCAUCAAAAGAAAUAGUCUUGCGCCCAACCAGAAAGUCCGCAAUCAUUUUAAGGGUA [G1A U108C U122C U124C] | 0
20 | AUUAACGGUCAUAGGCCAUGGGAACUAGGAGCACCAUUUCGCUGCCAGUGAAGAAAUGAACAAAGAAAAUCUGGGCCAGGCUGGCAUCAAAAGAAAUAGUCUUGCGCUCAACCAGAAAGUCUGUAAUCAUUCUAAGGGUA [G1A A22G A82U U132C] | 0.34
21 | AUUAACGGUCAUAGGCCAUGGAAACUAAGAGCACCAUUUCGCUGCCAGUGAAGGAAUGAACUAAGAAAAUCUGGGCCAGGCAGGCAUCAAAAGAAAUAGUCUUGCGCUCAGCCAGAAAGUCUGUAAUCAUUUUAAGGGUA [G1A G28A A54G A62U A111G] | 0.05

From the RNAGym collection of RNA variant scans (doi:10.7554/elife.90254)
